Experimental data: PubChem BioAssay (NCATS)
“And” between values parts separate entries of the source, which are not always exact repeats. Equal values may be shown once. Inconclusive means that the source gave no clear call. Such entries were picked first, then a sample of the others. Potencies of inconclusive entries are left out as doubtful fits. The source made the active and inactive calls. The call rests on the fitted dose curve; in most records, active means well fitted curve in the direction sought with a large enough effect; inconclusive means small, poorly fitted or top-dose-only effect, or another doubt; inactive means no such curve, though single readings can be large; an effect the other way counts as inactive or inconclusive.

Assay: Viability qHTS for spleen associated tyrosine kinase inhibitor (SYKi) drug resistant MV4-11 cells (AID 1963824); further: nearly all actives have a fitted effect of over 35% in size
Details: SYKi-resistant MV4-11 viability, CellTiter-Glo, 72 h; series mostly up to 45 µM
Outline: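 CellTiter-Glo luminescence, read 10 min after reagent addition, reports viability after a 72 hr compound exposure. Cells are an MV4-11 line made resistant to SYK inhibition, seeded at 500 per well onto compound-containing plates.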
Potency means the concentration at half of the fitted maximal effect; tags describe the fitted curve by direction and shape.

**Q.** With `Cc1cccc(C)c1NC(=O)C(C)N` (centres undefined) as the molecule, how does the Potency read?
**A.** inconclusive [cytotoxic, partial curve]

**Q.** For `CCCc1cc(C)[nH]c(=O)c1CNC(=O)c1cc(-c2ccc(N3CCN(C(C)C)CC3)nc2)cc2c1cnn2C(C)C`, which Potency is on record?
**A.** active: 8.2 µM and active: 8.33 µM

**Q.** With `CC1(C)SCCN(S(=O)(=O)c2ccc(OCC#CCO)cc2)[C@H]1C(=O)NO` as the molecule, how does the Potency read?
**A.** inconclusive [cytotoxic, partial curve]

**Q.** For `CNCCC(Oc1ccc(C(F)(F)F)cc1)c1ccccc1` (centres undefined), which Potency is on record?
**A.** inconclusive [cytotoxic, single point]

**Q.** For `C/C(=N\NC(=S)N1CCC1)c1ccccn1`, which Potency is on record?
**A.** active: 0.0074 µM

**Q.** With `COc1cc(N2CCN(C)CC2)ccc1Nc1ncc2c(n1)N(C)c1ccccc1C(=O)N2` as the molecule, how does the Potency read?
**A.** active: 13.2 µM

**Q.** For `Cc1noc2c1-c1ccccc1C(c1ccc(Cl)cc1)=N[C@H]2CC(N)=O`, which Potency is on record?
**A.** inconclusive [cytotoxic, single point]

**Q.** With `O=C(C(c1ccccc1)c1ccccc1)N1CCN(CC(O)COc2cccc3ncccc23)CC1` (centres undefined) as the molecule, how does the Potency read?
**A.** active: 10.3 µM and active: 11.8 µM

**Q.** With `CCOC(=O)/C=C(C)/C=C/C=C(C)/C=C/c1c(C)cc(OC)c(C)c1C` as the molecule, how does the Potency read?
**A.** inconclusive [cytotoxic, single point]

**Q.** Which Potency does the source give for `COc1cc2nc(-c3cc(F)ccc3O)nc(N[C@@H]3CNC[C@H]3C(C)(C)O)c2cc1OC` here?
**A.** active: 11.6 nM and active: 5.3 nM

**Q.** Which Potency does the source give for `Nc1nc2c(c(=O)[nH]1)N1CN(c3ccc(C(=O)N[C@@H](CCC(=O)O)C(=O)O)cc3)CC1CN2` (some centres undefined) here?
**A.** active: 0.833 µM

**Q.** For `Cc1nc(N)nc(N)c1-c1ccc(Cl)c(Cl)c1`, which Potency is on record?
**A.** inconclusive [cytotoxic, full curve, poor fit]

**Q.** For `CN(C)CCOC(c1ccc(Cl)cc1)c1ccccn1` (centres undefined), which Potency is on record?
**A.** inconclusive [cytotoxic, single point]

**Q.** With `CCNC(=O)Nc1ccc(Oc2ncnc(N)c2/C=N/OC)cc1Cl` as the molecule, how does the Potency read?
**A.** active: 18.6 µM

Assay: Cellular viability qHTS for adrenocortical cancer (ACC) cell line SW-13 (AID 1963989); further: nearly all actives have a fitted effect of over 65% in size;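 on activity (max response): cells grown in serum-free medium with ITS supplement; on the % scale 0 is the no-effect control and ±100 the full control effect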
Details: SW-13 ACC cells viability, CellTiter-Glo, 48 h; activity (max response): active compounds read low
Outline: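 Luminescent ATP read-out (CellTiter-Glo, 20 min at room temperature) measured metabolically competent SW-13 cells after 48 h compound treatment. Final concentrations spanned up to 46 uM; bortezomib served as positive control.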

**Q.** With `CC[C@@H](Oc1cccc(CN(CCCOc2ccc(OC)cc2)c2nc3ccccc3o2)c1)C(=O)O` as the molecule, how does the Potency read?
**A.** inconclusive [cytotoxic, single point]

**Q.** With `O=c1[nH]sc2cc(Cl)ccc12` as the molecule, how does the Potency read?
**A.** inconclusive [cytotoxic, single point]

**Q.** Which Potency does the source give for `CC(C)Cc1ccc(CC(=O)O)cc1` here?
**A.** inconclusive [cytotoxic, single point]

**Q.** Which Potency does the source give for `O=C(OCC(O)CO)c1ccccc1Nc1ccnc2c(C(F)(F)F)cccc12` (centres undefined) here?
**A.** inconclusive [cytotoxic, single point]

**Q.** Which Potency does the source give for `COc1ccc(S(=O)(=O)NCc2ccc(C(=O)NCCc3ccc(Cl)cn3)cc2)cc1` here?
**A.** inconclusive [cytotoxic, partial curve, poor fit]

**Q.** For `Cc1cc(O)c2ccccc2c1O`, which Potency is on record?
**A.** inconclusive [cytotoxic, single point]

**Q.** For `Nc1ccc([N+](=O)[O-])cc1O`, which Potency is on record?
**A.** inconclusive [cytotoxic, partial curve]

**Q.** Which Potency does the source give for `CCCCC(=O)O[C@]1(C(=O)CO)CC[C@H]2[C@@H]3CCC4=CC(=O)CC[C@]4(C)[C@H]3[C@@H](O)C[C@@]21C` here?
**A.** inconclusive [cytotoxic, single point]

**Q.** For `COc1ccc(-n2c(SCCCN3C(=O)c4cccc5cccc(c45)C3=O)nnc2-c2ccncc2)cc1`, which activity (max response) is on record?
**A.** inactive: -14.9%

**Q.** Which Potency does the source give for `Cc1ccc(Nc2ncc3c(n2)N(C)C(=O)N(c2cc(NC(=O)c4cccc(C(F)(F)F)c4)ccc2C)C3)cn1` here?
**A.** inconclusive [cytotoxic, full curve]

**Q.** Which activity (max response) does the source give for `OC[C@@H](O)[C@H](O)[C@H](O)[C@@H](O)CO` here?
**A.** inactive: 1.26% and inactive: 9.11%

**Q.** Which Potency does the source give for `COc1ccc(C(=O)c2ccccc2)c(O)c1` here?
**A.** inconclusive [cytotoxic, single point]

**Q.** For `Clc1ccc2c(c1)Nc1ccccc1S2`, which activity (max response) is on record?
**A.** inactive: -11.9%

**Q.** With `CCCC(=O)c1cc(O)c(O)cc1O` as the molecule, how does the Potency read?
**A.** inconclusive [cytotoxic, partial curve, poor fit]

**Q.** For `CN(CCOc1ccc(C[C@H](Nc2ccccc2C(=O)c2ccccc2)C(=O)O)cc1)c1ccccn1`, which Potency is on record?
**A.** inconclusive [cytotoxic, single point]

**Q.** With `Cc1c2oc3c(C)ccc(C(=O)N[C@@H]4C(=O)N[C@H](C(C)C)C(=O)N5CCC[C@H]5C(=O)N(C)CC(=O)N(C)[C@@H](C(C)C)C(=O)O[C@@H]4C)c3nc-2c(C(=O)N[C@@H]2C(=O)N[C@H](C(C)C)C(=O)N3CCC[C@H]3C(=O)N(C)CC(=O)N(C)[C@@H](C(C)C)C(=O)O[C@@H]2C)c(N)c1=O` as the molecule, how does the activity (max response) read?
**A.** inconclusive: -101%

**Q.** For `COc1cc(C(=O)NC(N)=Nc2ccc(C)c(NC(=O)c3ccc(-c4ccccc4)cc3)c2)cc(OC)c1OC`, which Potency is on record?
**A.** active: 11.2 µM

**Q.** With `COc1cc2c(NC3CCN(C4CCCCC4)CC3)nc(N3CCCN(C(C)C)CC3)nc2cc1OCCCN1CCCCC1` as the molecule, how does the Potency read?
**A.** active: 3.16 µM

**Q.** Which Potency does the source give for `CN(C)CCCN1c2ccccc2Sc2ccccc21` here?
**A.** inconclusive [cytotoxic, single point]

**Q.** For `CC(=O)Nc1ccc(/C=N/NC(N)=S)cc1`, which Potency is on record?
**A.** inconclusive [cytotoxic, single point]

**Q.** Which Potency does the source give for `NC(=O)n1c(O)c(C(=O)c2cccs2)c2cc(Cl)ccc21` here?
**A.** inconclusive [cytotoxic, single point]

**Q.** Which Potency does the source give for `Clc1ccc2c(c1)CCc1cccnc1C2=C1CCNCC1` here?
**A.** inconclusive [cytotoxic, single point]

**Q.** With `C[C@@H](CN(C)C)CN1c2ccccc2Sc2ccccc21` as the molecule, how does the Potency read?
**A.** inconclusive [cytotoxic, single point]

**Q.** For `Nc1nccn2c(C3CCC(C(=O)O)CC3)nc(-c3cc4cccc(Cl)c4[nH]3)c12` (centres undefined), which Potency is on record?
**A.** inconclusive [cytotoxic, single point]

**Q.** For `C[C@@H](O[C@H]1OCCN(Cc2n[nH]c(=O)[nH]2)[C@H]1c1ccc(F)cc1)c1cc(C(F)(F)F)cc(C(F)(F)F)c1`, which Potency is on record?
**A.** active: 18.4 µM

**Q.** For `Cc1nc2n(c(=O)c1CCN1CCC(c3noc4cc(F)ccc34)CC1)CCC[C@H]2O`, which activity (max response) is on record?
**A.** inactive: 4.14%

**Q.** With `Cc1cccc(C)c1NC(=O)C(C)N` (centres undefined) as the molecule, how does the Potency read?
**A.** inconclusive [cytotoxic, single point]

**Q.** For `CCCc1cc(C)[nH]c(=O)c1CNC(=O)c1cc(-c2ccc(N3CCN(C(C)C)CC3)nc2)cc2c1cnn2C(C)C`, which Potency is on record?
**A.** inconclusive [cytotoxic, single point]

**Q.** Which Potency does the source give for `CC1(C)SCCN(S(=O)(=O)c2ccc(OCC#CCO)cc2)[C@H]1C(=O)NO` here?
**A.** inconclusive [cytotoxic, single point]

**Q.** With `CNCCC(Oc1ccc(C(F)(F)F)cc1)c1ccccc1` (centres undefined) as the molecule, how does the Potency read?
**A.** inconclusive [cytotoxic, single point]

**Q.** Which Potency does the source give for `C/C(=N\NC(=S)N1CCC1)c1ccccn1` here?
**A.** inconclusive [cytotoxic, full curve, poor fit]

**Q.** Which Potency does the source give for `COc1cc(N2CCN(C)CC2)ccc1Nc1ncc2c(n1)N(C)c1ccccc1C(=O)N2` here?
**A.** inconclusive [cytotoxic, single point]

**Q.** Which Potency does the source give for `Cc1noc2c1-c1ccccc1C(c1ccc(Cl)cc1)=N[C@H]2CC(N)=O` here?
**A.** inconclusive [cytotoxic, partial curve]

**Q.** Which Potency does the source give for `O=C(C(c1ccccc1)c1ccccc1)N1CCN(CC(O)COc2cccc3ncccc23)CC1` (centres undefined) here?
**A.** inconclusive [cytotoxic, single point]

**Q.** Which Potency does the source give for `CCOC(=O)/C=C(C)/C=C/C=C(C)/C=C/c1c(C)cc(OC)c(C)c1C` here?
**A.** inconclusive [cytotoxic, single point]

**Q.** Which Potency does the source give for `COc1cc2nc(-c3cc(F)ccc3O)nc(N[C@@H]3CNC[C@H]3C(C)(C)O)c2cc1OC` here?
**A.** active: 6.31 µM

**Q.** Which Potency does the source give for `Nc1nc2c(c(=O)[nH]1)N1CN(c3ccc(C(=O)N[C@@H](CCC(=O)O)C(=O)O)cc3)CC1CN2` (some centres undefined) here?
**A.** inconclusive [cytotoxic, partial curve]

**Q.** With `Cc1nc(N)nc(N)c1-c1ccc(Cl)c(Cl)c1` as the molecule, how does the Potency read?
**A.** active: 0.231 µM

**Q.** Which Potency does the source give for `CN(C)CCOC(c1ccc(Cl)cc1)c1ccccn1` (centres undefined) here?
**A.** inconclusive [cytotoxic, single point]

**Q.** With `CCNC(=O)Nc1ccc(Oc2ncnc(N)c2/C=N/OC)cc1Cl` as the molecule, how does the Potency read?
**A.** inconclusive [cytotoxic, single point]
